± gives the standard deviation of the averaged measurements. Some of the results follow.
System: PfAP2-LT AP2 domain (GST-tagged)
Assay: gcPBM binding intensity (ln(normalized median fluorescence intensity)); higher = stronger DNA binding
Method in brief: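 The highest Masliner-normalised natural-log median intensity across replicate spots of either probe orientation is reported as binding intensity. GST-tagged P. falciparum DNA-binding domains expressed in E. coli were applied for 1 h to an Agilent 4 × 180k array of primer-extended double-stranded 36-bp intergenic genomic probes plus negative controls, and bound protein was detected with Alexa488 anti-GST antibody and scanned at 488 nm.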

Sequence | gcPBM binding intensity (ln)
AAAAAAAAAAAAGTTACACACAAATAAAATATTTGG [CACACA_site694] | 8.82 ± 0.55
AAGAAAAATTTAAACTGTACTTGTTTTCCAATGAAC [XGTACX_site4443] | 8.44 ± 0.4
ATAAAAAAAAATAAATGTACAAATTAACAAAATAAT [XGTACX_site5048] | 8.96 ± 0.52
TAATATTTACATATTACACACACGTATTATTAAATA [CACACA_site6340] | 8.98 ± 0.38
TATTTTTTAAAAATGGGTACACATAAATAAATAAAT [XGTACX_site7643] | 8.58 ± 0.45
ATCTAAACAAATAATACACACAATAAAATAGGAAGA [CACACA_site4072] | 9.24 ± 0.41
TGTGAATAAATAAGCACACATAAACCCATATATAAA [CACACA_site4103] | 9.16 ± 0.36
TTCAAAATAAAAAATTCACACACATATATATATATA [CACACA_site8653] | 9.44 ± 0.17
TAATAATAGAGACACACACACATAGACATATAAATA [CACACA_site6729] | 9.89 ± 0.4
TTATAATCAATGAATACACACATATATTTCATTAAT [CACACA_site5909] | 8.8 ± 0.42
ATCTATGAAAAAGGTACATGCAATAAAGAAACATAT [TGCATGCA_site805] | 9.04 ± 0.36
TTATACTATTTTTATACATGCATTTCTATATATTTT [TGCATGCA_site316] | 8.96 ± 0.56
AAATAAAACAATTAACGTACAAGCATATATATATAT [XGTACX_site8508] | 9.63 ± 0.33
ATTTATTAAATTTATAGTACTCAAAGATTTTTATTT [XGTACX_site6661] | 8.46 ± 0.53
TATATATATATTATATGTACACAAGGAAATATGCAT [XGTACX_site5637] | 8.89 ± 0.32
TATGTATAATTATTTTGTACTTATTAAATTTTTTTT [XGTACX_site5413] | 8.46 ± 0.4
AAATAAAAAAAAATAGCACACATAAATATATTATAT [CACACA_site8155] | 8.89 ± 0.46
GAGTAAATAAATAAATGTACATATATATATATTATC [XGTACX_site8466] | 8.99 ± 0.42
AATATATATATATATATATATTTTTGTTAGAATATG [XGTACX_negctrl_site58] | 8.95 ± 0.32

Sequence | gcPBM binding intensity (ln)
ATACATAAATATTGATGTACTCATTTAATATATTAT [XGTACX_site3992] | 8.77 ± 0.38
TATAATAAATATTAACGTACTCATATATATATATAT [XGTACX_site3871] | 9.26 ± 0.099
GCAAGGAAATAATTGATAATATATATATATATATAT [GTGCAC_negctrl_site400] | 9.35 ± 0.23
ATATAAGCGTATACATGTACATATATATCTTTGTAA [XGTACX_site2742] | 8.93 ± 0.3
TATGTAAATCTCTTAAGAATTCGCTATATCTCTTTT [CACACA_negctrl_site1180] | 8.54 ± 0.45
AGGCTACGAATAGAATGTACCCGAAATAAGGAATAT [XGTACX_site6012] | 8.88 ± 0.5
CTAAAATACGGACACACACACACATATATATATATA [CACACA_site6138] | 10.3 ± 0.11
ATTATCTCCGCCATGTGGACACATATAAGACATTTT [XGTACX_site2889] | 9.01 ± 0.22
ATTGTATATAAATGAGTGCATACTATGTTGTTCTTA [GTGCAC_site9678] | 8.8 ± 0.41
AAAAAAAAAAAAAACACACACACAAAAAAAAATATA [CACACA_site1104] | 9.68 ± 0.35
ATAATTATGAAGCATACATGCATGTCCTGGCTTAAA [TGCATGCA_site491] | 8.86 ± 0.43
AAATTAGAAATACCTACACACTTATCAAAATAAATT [CACACA_site7132] | 8.83 ± 0.35
AAAATATGTAGACACATACACACATATATATATATA [CACACA_site1221] | 9.67 ± 0.42
TTTTTTTTTTCAAATGCATGCAAAAAAAAAAAAATA [TGCATGCA_site945] | 8.14 ± 0.18
TTTTCTTTTTCCAAAAGTACGTAATTTAAACATTTT [XGTACX_site2066] | 8.29 ± 0.51
TATATGTATGTTTGTTTGTTTGTATTTTTTAAGGTA [XGTACX_negctrl_site619] | 8.87 ± 0.48
ATCTAAATTTTTCCATGTACATATACTTTTATGCAT [XGTACX_site2683] | 9.07 ± 0.38
TTATAATATGGATACACACACATATATAAATATATA [CACACA_site5314] | 9.26 ± 0.35
AAAAAATAAATAAATACACACAAATCTATATTTATA [CACACA_site7243] | 8.86 ± 0.46

Sequence | gcPBM binding intensity (ln)
TAACTATATTTTTACTGTACAAAAAAATTAAATAAT [XGTACX_site1765] | 8.46 ± 0.38
ATATTAATTCTACATTGTACACATGAAAAAATATAA [XGTACX_site8759] | 8.57 ± 0.4
AAAACACAAAAAAAATGTACACATATATATATATAT [XGTACX_site8509] | 9.84 ± 0.12
CTAAGAAAAAATAAAGCACACAAATATTTTAAAAAC [CACACA_site9094] | 8.94 ± 0.38
CATTATGTCGTAAATACACACATACAGATACATACA [CACACA_site4880] | 9.17 ± 0.31
AAATTAAATAAATTTACACACTAAAAATTACAGATA [CACACA_site4722] | 8.66 ± 0.44
GTTATATATAATAATTGTACAAAATTAAATATAACT [XGTACX_site4189] | 8.7 ± 0.47
AAAAAACACCCACATACACACAAAAATGTTATAAAT [CACACA_site81] | 9.53 ± 0.38
TTTTTATTTGGTTGTGTACACATATATATATATATA [CACACA_site5844] | 9.37 ± 0.25
TAGATTATTTTATTTAGTACATAAAAAAGTAAGACC [XGTACX_site7889] | 8.54 ± 0.47
AATAAATTATGAACGGTGCAGGAAAAATTGTAACAT | 9.08 ± 0.47
AAACATAAGGGACACACACACATATATATATATATA [CACACA_site5920] | 10.2 ± 0.27
CAAAAAAACAAACACACACACACACCGATATATATA [CACACA_site9218] | 10.1 ± 0.23
TGAAGTGCAAAATACTGTACGTAATGTGCTTGTTAC [XGTACX_site4512] | 8.96 ± 0.46
AAAAAAAAATGTCATGGTACACAATTTTTTCTTTTT [XGTACX_site4505] | 8.48 ± 0.47
TAAAGTAAAACAAGGTAAGGTTTTTCTTTTTCTTTT [CACACA_negctrl_site1271] | 8.4 ± 0.5
ACATATAGAAGTATCTATAAACAGTGATAGCATTTT [CACACA_negctrl_site1122] | 8.81 ± 0.53
AAAAAGAATAAATAAATATAAATAAATAAATATATA [GTGCAC_negctrl_site336] | 8.56 ± 0.54

Source: the supplement of paper PMC11417369
